Where “and” joins values, the source holds several entries; their conditions need not be identical. Equal entries are not always repeated. The whole screen tested about 280,000 compounds, of which about 100 (0.036%) were called active. The shares of active, inactive and inconclusive entries below differ from those in the screen. Calls come from the whole dose curve; as a rule, active = well fitted inhibition curve with a large enough effect in the signal ratio, with a control signal flat (not every such curve was filed as active); inconclusive = small, poorly fitted or top-dose-only effect, or effect the other way, or a change in a side signal; inactive = no such curve, though single readings can be large or run the other way; the % refers to the signal ratio. Potencies beside an inconclusive call are fits to weak or partial responses and may not hold up. A note “side channel” means that the fit belongs to a control or component signal, not to the main read-out.
Each compound was assayed against Muscleblind-like protein 1 (Homo sapiens) (UniProt Q9NR56) (assay: qHTS Assay for Inhibitors of MBNL1-poly(CUG) RNA binding). Settings: TR-FRET MBNL1-His/biotin-(CUG)12 binding, 665/545 ratio; series mostly up to 57.5 µM.
Summary of the method: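 Compounds (final 92 nM to 58 uM) are added to His-tagged MBNL1 and biotin-(CUG)12, then terbium anti-His antibody and streptavidin-XL665 (5 nM final). After 60 min at room temperature, the 665/545 nm ratio is read.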
Potency is the fitted concentration of half-maximal effect; tags give direction and shape of the fitted curve or compound fluorescence and quenching.

UniProt Q9NR56, sequence (Q9NR56 whole entry, looked up): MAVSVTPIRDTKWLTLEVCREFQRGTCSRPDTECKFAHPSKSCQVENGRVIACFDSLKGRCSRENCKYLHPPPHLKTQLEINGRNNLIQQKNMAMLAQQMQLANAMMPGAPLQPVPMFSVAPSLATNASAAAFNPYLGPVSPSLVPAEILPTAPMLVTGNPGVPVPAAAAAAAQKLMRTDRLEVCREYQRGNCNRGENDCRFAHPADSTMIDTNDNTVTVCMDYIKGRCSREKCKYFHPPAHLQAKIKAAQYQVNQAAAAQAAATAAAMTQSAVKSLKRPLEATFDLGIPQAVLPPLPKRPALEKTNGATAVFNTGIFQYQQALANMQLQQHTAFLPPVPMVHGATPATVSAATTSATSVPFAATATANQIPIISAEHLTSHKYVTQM

Compound	Potency
Cc1ccc(N(CC(O)CN2C(=O)NC(C)(C)C2=O)S(=O)(=O)c2ccc([N+](=O)[O-])cc2)cc1 (configuration not stated)	inconclusive: 15.8 µM [quencher, side channel, partial curve]
COc1nc(C)cc(C)c1S(=O)(=O)c1ccc(Cl)cc1	inconclusive: 0.199 µM [quencher, side channel, full curve]
COc1ccc(NC2c3ncccc3C(=O)N2Cc2cccs2)cc1 (configuration not stated)	inactive
NC(=Nc1ccccc1)NC(=O)c1nc(Cl)c(N)nc1N	inconclusive: 12.6 µM [quencher, side channel, partial curve]
O=C1C(=O)N(CCOCCO)C(c2ccccn2)/C1=C(\O)c1ccccc1 (configuration not stated)	inconclusive: 28.2 µM [quencher, side channel, partial curve, poor fit]
O=C(OCc1ccc(O)cc1)c1c(-c2ccsc2)oc2ccc(N3CCOCC3)cc12	inconclusive: 39.8 µM [fluorescent, side channel, single point]
O=C1CCCC2=C1C(c1ccco1)Nc1ccc3ccccc3c12 (configuration not stated)	inconclusive: 11.2 µM [quencher, side channel, partial curve]
CC1CCC/C(=C\Nc2ccc(O)cc2)C1=O (configuration not stated)	inconclusive: 20 µM [quencher, side channel, partial curve]
CC[n+]1ccc(C(=O)NCc2ccccc2)cc1	inconclusive: 17.8 µM [quencher, side channel, partial curve]
O=C1CCCC(O)=C1N=Nc1ccc(S(=O)(=O)N2CCOCC2)cc1	inconclusive: 7.94 µM [quencher, side channel, partial curve]
COCCCNC(=S)NNC(=O)c1cc(-c2ccncc2)nc2ccccc12	inconclusive: 28.2 µM [quencher, side channel, single point]
CC(C(=O)N(C)C1CCS(=O)(=O)C1)N1C(=O)/C(=C/c2ccc(F)cc2)SC1=S (configuration not stated)	inconclusive: 28.2 µM [quencher, side channel, partial curve]
COc1ccc(/C=N/NC(=O)c2ccn[nH]2)cc1CSc1ccccn1	inconclusive: 25.1 µM [quencher, side channel, partial curve]
C/C(=N\Nc1ccc(S(=O)(=O)N2CCOCC2)cc1[N+](=O)[O-])C(C)C	inconclusive: 3.16 µM [quencher, side channel, full curve]
Cc1cccc2c1ncc1c(=O)n(-c3ccccc3)[nH]c12	inconclusive: 10 µM [quencher, side channel, partial curve]
CCCN(CCC)C(=O)c1cc2c(=O)n3cccc(C)c3nc2s1	inconclusive: 22.4 µM [quencher, side channel, partial curve]
CCCCNC(=O)c1cc2cccc([N+](=O)[O-])c2[nH]1	inconclusive: 14.1 µM [quencher, side channel, partial curve]
O=C(O)CCCc1ccc2ccc3cccc4ccc1c2c34	inconclusive: 39.8 µM [quencher, single point]
O=[N+]([O-])c1ccc([N+](=O)[O-])c(Nc2ccc(N3CCOCC3)cc2)c1	inconclusive: 3.16 µM [quencher, side channel, partial curve]

Compound	Potency
Cc1ncc([N+](=O)[O-])n1CC(C)O (configuration not stated)	inconclusive: 14.1 µM [quencher, side channel, partial curve] and inconclusive: 35.5 µM [quencher, side channel, partial curve]
CCOC(=O)N1CCN(CC(=O)Nc2cc3c(cc2C(C)=O)OCO3)CC1	inconclusive: 28.2 µM [quencher, side channel, single point]
COc1ccc(NS(=O)(=O)c2ccc(OC)c(NC(=O)CCC3CCCC3)c2)cc1	inconclusive: 1.78 µM [fluorescent, side channel, full curve, poor fit]
Cc1cccc(-c2nnc(-c3cccc(NC(=O)Cc4cccs4)c3)o2)c1	inactive
CCCNC(=O)C1CCC(CNS(=O)(=O)c2cccc3nsnc23)CC1 (configuration not stated)	inconclusive: 12.6 µM [quencher, partial curve]
[O-]/C(=C(\C(=S)Nc1cccc2ccccc12)[n+]1ccccc1)c1ccc(OC(F)F)cc1	inconclusive: 25.1 µM [quencher, side channel, single point]
O=C(O)c1ccc(S(=O)(=O)c2ccc3c(c2)C(=O)N(c2ccc(Br)cc2)C3=O)cc1	inconclusive: 22.4 µM [quencher, side channel, single point]
Brc1cccc(OCCCCN2CCCCC2)c1	inactive
Cc1nn(Cc2ccc(C(=O)N/N=C/c3ccncc3)o2)c(C)c1Cl	inconclusive: 39.8 µM [quencher, single point]
CN(C)/C=C/C(=O)c1cc(N2CCOCC2)ccc1[N+](=O)[O-]	inconclusive: 39.8 µM [quencher, side channel, single point]
O=C(COC(=O)CNC(=O)c1ccc(Cl)c([N+](=O)[O-])c1)NC(=O)c1ccccc1	inconclusive: 25.1 µM [quencher, side channel, partial curve]
Cc1ccc(NC(=O)CSc2ncccn2)c([N+](=O)[O-])c1	inconclusive: 10 µM [quencher, partial curve]
CC(C)OCCCN(C)C1CCN(S(=O)(=O)c2ccc(-c3ccc(=O)[nH]n3)s2)CC1	inconclusive: 4.47 µM [quencher, side channel, full curve, poor fit]
Fc1cccc(NC(=S)Nc2cccc3ccccc23)c1	inconclusive: 35.5 µM [quencher, side channel, single point]
COc1ccc(/C=C\c2nc(O)c([N+](=O)[O-])c(=O)[nH]2)cc1O	inconclusive: 14.1 µM [quencher, side channel, partial curve]
CC(C)CC(=O)n1sc(NC(=O)c2ccccc2)nc1=O	inactive
O=C(Nc1cccnc1)c1cc2c(s1)-c1ccccc1OC2	inconclusive: 22.4 µM [quencher, side channel, single point]
CCOc1ccc(NC(=S)NC(=O)c2cccnc2)c([N+](=O)[O-])c1	inconclusive: 0.501 µM [quencher, side channel, full curve]
Cc1ccc(C(C)C)c(OCc2ccc(C(=O)N/N=C/c3cccc(O)c3O)cc2)c1	inconclusive: 100 µM [inhibitor, single point]

Compound	Potency
Cn1c(CNc2ccc(Cl)cc2)nnc1SCCN1CCCCC1	inconclusive: 0.794 µM [quencher, side channel, single point]
N#CCCCn1c(O)c(N=NC(=O)C(O)c2ccccc2)c2ccccc21 (configuration not stated)	inconclusive: 10 µM [quencher, side channel, partial curve]
O=c1nc(-c2ccccc2)cn[nH]1	inconclusive: 12.6 µM [quencher, side channel, partial curve]
Cc1c(C(=O)N/N=C/c2cccnc2)sc(=S)n1C	inconclusive: 7.08 µM [quencher, side channel, full curve, poor fit]
NC(=O)C1CCN(CCC(=O)Nc2ccc(Br)cc2)CC1	inconclusive: 39.8 µM [quencher, side channel, single point]
COC(=O)c1ccc2c(c1)C(C)(C)C(/C=C/c1ccc(OC)c(OC)c1OC)=[N+]2C	inactive
O=[N+]([O-])c1cc(/C=N/n2cnnc2)ccc1N1CCCC1	inconclusive: 14.1 µM [quencher, side channel, partial curve]
O=C(CSc1nc2c(c(=O)n1-c1ccc(Cl)cc1)SCC2)N1CCOCC1	inconclusive: 20 µM [quencher, single point]
Cn1c2ccccc2c2ncn(Cc3ccco3)c(=O)c21	inactive
COc1ccccc1NC(=O)C1CCN(S(=O)(=O)c2cccc3nonc23)CC1	inconclusive: 12.6 µM [quencher, side channel, partial curve]
O=C(NCCCN1CCCC1)Nc1ccccc1[N+](=O)[O-]	inconclusive: 35.5 µM [quencher, side channel, single point]
O=C(Nc1ccccc1)/C(=C/c1cccnc1)NC(=O)c1ccco1	inconclusive: 4.47 µM [fluorescent, side channel, single point]
O=C(Nc1ccccn1)c1ccc(COc2ccccc2Cl)o1	inactive
N#CC1=C(N)C(C#N)(C#N)C(c2cccnc2)C2CCCC=C12 (configuration not stated)	inconclusive: 28.2 µM [quencher, side channel, partial curve]
Cc1ccc(-c2nc3ccccc3[nH]2)s1	inconclusive: 14.1 µM [quencher, side channel, partial curve]
CC(=O)c1ccc2noc(-c3cccc(C)c3)c2c1	inconclusive: 28.2 µM [quencher, side channel, single point]
O=C(COc1ncnc2ccccc12)Nc1cc([N+](=O)[O-])ccc1Cl	inconclusive: 3.55 µM [quencher, side channel, full curve]
O=[N+]([O-])c1ccc(OCc2cn([C@@H](CO)c3ccccc3)nn2)c(Br)c1	inconclusive: 22.4 µM [quencher, side channel, partial curve]
COc1ccc(-n2nc(C(=O)NCC(=O)NC(C)C)c3ccccc3c2=O)cc1	inconclusive: 22.4 µM [quencher, side channel, partial curve]
